Experimental data as given in the supplement of paper PMC11417369.
This is one part of the list.

System: PfAP2-HC AP2 domain (GST-tagged)
Test: gcPBM binding intensity (ln(normalized median fluorescence intensity)); higher = stronger DNA binding
Outline: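 Binding intensity is defined as the maximum Masliner-normalised natural-log median intensity across replicate spots for either probe orientation. It was measured on an Agilent 4 × 180k array of primer-extended double-stranded 36-bp intergenic genomic probes and negative controls, to which GST-tagged P. falciparum DNA-binding domains made in E. coli were applied for 1 h in 1× PBS with 1% milk, 0.2 mg/ml BSA, 0.5% salmon testes DNA and 0.03% Triton X-100. Detection was by Alexa488 anti-GST antibody and scanning at 488 nm.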

First: AAATAAATACATAATACATGCATATTTAATATATAG [TGCATGCA_site135]
Second: GTACAATCATATACTACATGCAGTTTTTTTTATTGA [TGCATGCA_site230]
The “gcPBM binding intensity (ln)” value of the first is higher: 9.84 for the first, 9.72 for the second.

First: AATTTTTTTTAATGATGTACTTTTTGAAAATAAACT [XGTACX_site4221]
Second: TTTTCTTTTTCTTGTACACACATAATATGGATGAAA [CACACA_site808]
The “gcPBM binding intensity (ln)” value of the first is lower: 9.31 for the first, 9.66 for the second.

Compared with “TAGATATATAAATACACACACATACACAAAAAAAAA [CACACA_site7652]”, “AAATAATTTATGCATACACACATATATATATATATA [CACACA_site4020]” is lower in “gcPBM binding intensity (ln)” value: 10.3 for the first, 9.89 for the second.

Going from “TTACTTTTTTTTTTATGTACTTATATTTTTTACACT [XGTACX_site3503]” to “TATGAATACATTTGTTGTACTTAAATTTCCTTTATT [XGTACX_site5374]”, the “gcPBM binding intensity (ln)” value falls from 10.2 to 9.68.

First: TATAAATATCTGAATTGTACAGGTGAAAAAAAAAAT [XGTACX_site1867]
Second: TTTTTTATTATTATTATTTTTTATGTATAATAATGT [CACACA_negctrl_site631]
The “gcPBM binding intensity (ln)” value of the first is higher: 9.71 for the first, 9.62 for the second.

Compared with “TTTCTATTCCATTCAACACACAAAAATGTATGCTTT [CACACA_site1072]”, “AATGGATATTTCTTTATATATATCTTATTTGATTAT [XGTACX_negctrl_site284]” is lower in “gcPBM binding intensity (ln)” value: 9.86 for the first, 9.53 for the second.

Going from “TATAAACGTATAATATGTACACACACATATATACAA [XGTACX_site1686]” to “ATTATATAGAATTGTACATGCGAATTGTATAACGAT [TGCATGCA_site125]”, the “gcPBM binding intensity (ln)” value falls from 9.89 to 9.76.

Going from “AAAAAAAAAAAAAAAAATATATTTATGAAATAAAAA [TGCATGCA_negctrl_site262]” to “TATTTTTTTTTTTTTTTTTTTTTTATATATACATAT [CACACA_negctrl_site23]”, the “gcPBM binding intensity (ln)” value rises from 9.28 to 9.69.

First: GAAGAAGTTTAAAAAGCACACAAAAAAAAAAAAAAA [CACACA_site9088]
Second: CACAAAATAAATTAAACACACAACATCATATATGTA [CACACA_site846]
The “gcPBM binding intensity (ln)” value of the first is lower: 9.3 for the first, 10.3 for the second.

First: TATTTATAAACATACGCACACATTAATATATATATA [CACACA_site9314]
Second: TAAATTATTATCCCCTCACACACAAAAATAAAAAGA [CACACA_site2886]
The “gcPBM binding intensity (ln)” value of the first is lower: 9.89 for the first, 10.3 for the second.

Compared with “CTTGTAGATATAAAATGTACAAAAATAAATTGCACA [XGTACX_site4409]”, ATTATTATTAATCTTGTGCACATATATTTTAATTAG is higher in “gcPBM binding intensity (ln)” value: 9.56 for the first, 9.74 for the second.

Compared with “AGATATTCTACTATGTGTACATATATATATATAATT [XGTACX_site5060]”, “TTTTTCTTTCTATTTATCAATATTAAAAAAAAAAAA [CACACA_negctrl_site1629]” is lower in “gcPBM binding intensity (ln)” value: 9.8 for the first, 8.89 for the second.

Compared with “TTTTTTCAAATTTTCTTTTTTCTTTTGTTTTTTTTG [CACACA_negctrl_site380]”, “TATACATGTATATATTGTACATATGTTTTTTTTACA [XGTACX_site3300]” is higher in “gcPBM binding intensity (ln)” value: 9.48 for the first, 9.65 for the second.

Going from “TTACTCATGAAAGATACACACATTCGTTATTTATAT [CACACA_site7517]” to “TTTTTATAATGATACATATATTATTTTATTCTTAAT [CACACA_negctrl_site124]”, the “gcPBM binding intensity (ln)” value falls from 9.89 to 9.54.

Compared with “TAATGTTTCAAAATTTAATATACTACAAATATTATA [TGCATGCA_negctrl_site336]”, “ATGAACATCCAATATACACACATATATATTTATATT [CACACA_site829]” is higher in “gcPBM binding intensity (ln)” value: 9.34 for the first, 9.93 for the second.

First: TTTATATAGAAACACACACACAAAAAAAAAAAAAAA [CACACA_site2646]
Second: TTACAAAAAAAAAGGCGCGGATGGGGGCAATAGCAA [CACACA_negctrl_site238]
The “gcPBM binding intensity (ln)” value of the first is lower: 10.1 for the first, 10.4 for the second.

Going from “CAAAAAAAAAAAAAAACACACATTAAATTATAAAGA [CACACA_site2613]” to TAAGATATAAAAAATGTGCACATTAAAGTATTAATT, the “gcPBM binding intensity (ln)” value rises from 9.66 to 9.86.

Going from “TGTTATTCTGCATATACACACAAATAACAATTTAAA [CACACA_site6943]” to “TCTTATGATGGAATGTTAAATATTACATTTTGTTTA [TGCATGCA_negctrl_site503]”, the “gcPBM binding intensity (ln)” value rises from 9.54 to 9.58.

Compared with “CATTTCATTAATAAATGTACTTGTGAAGAGAAAAAG [XGTACX_site3115]”, “TATATGTGGGTTTTTTTTATGTGTTTTTCTTTTTTT [CACACA_negctrl_site936]” is higher in “gcPBM binding intensity (ln)” value: 9.47 for the first, 10 for the second.

Going from “AAAAGATAAAAAGAAGTGCATAATAGGAACAAATAT [GTGCAC_site9717]” to “ACAAAATTTACAAAATGTACAAAATATACAAAATGT [XGTACX_site3543]”, the “gcPBM binding intensity (ln)” value falls from 9.92 to 9.69.

First: TTTACATTTTAGGAAGTGCATATAATAAATACTATC
Second: CACATATATACACATACACACACACCCATACACCCA [CACACA_site8505]
The “gcPBM binding intensity (ln)” value of the first is lower: 9.49 for the first, 11 for the second.

First: TACATAAATACATACACACACATATAACCAATGTAG [CACACA_site5243]
Second: ATCACATTCCACGGTACACACTAAAAGAAAAATCAG [CACACA_site5907]
The “gcPBM binding intensity (ln)” value of the first is higher: 10.2 for the first, 9.69 for the second.

Compared with “ATTTATATTTAATATACACACATTATTTTTTTATAT [CACACA_site574]”, “AGAGTACAAGTAAATACACACATATATATGAAAATA [CACACA_site1079]” is higher in “gcPBM binding intensity (ln)” value: 9.91 for the first, 10 for the second.

First: ATATAATATTTTAGAGTGCACCGATAACAATAAATA [GTGCAC_site9754]
Second: TATAATATGACAAGAAGTACATATATTTACATATAT [XGTACX_site1571]
The “gcPBM binding intensity (ln)” value of the first is higher: 9.7 for the first, 9.63 for the second.

Compared with “CAAGTATTATATTGCGCATGCAAAGAAGGACACAAA [TGCATGCA_site1024]”, “TTATCTAGTACATACATACACACAACCATGTTATGA [CACACA_site3988]” is lower in “gcPBM binding intensity (ln)” value: 9.96 for the first, 9.78 for the second.

Going from “ATATATATATATATATATATAATAAAAGATCATTTA [XGTACX_negctrl_site371]” to “ATAATAAAAAGAAAAAGTACAAATGATTATGTTTGA [XGTACX_site3615]”, the “gcPBM binding intensity (ln)” value rises from 9.64 to 10.

Going from “TACTTTATTTTTTATACACACACAATATGTATATAT [CACACA_site9184]” to “GTATTTCTTTAATATACACACACCAAAACAAAAAAA [CACACA_site579]”, the “gcPBM binding intensity (ln)” value rises from 10 to 10.2.

Going from “AATAAATAAATAAGTACACACATATAAATATAAATA [CACACA_site6271]” to “TTCTACATGAAGTTATAAATTAATATTTTAATTTAT [XGTACX_negctrl_site134]”, the “gcPBM binding intensity (ln)” value falls from 9.96 to 9.17.

Going from “ATAAGGATCAGACACAAACACACATATATATATATA [CACACA_site558]” to “ATAATTAATCCAAAATGTACTTACATTTTATATGAA [XGTACX_site8888]”, the “gcPBM binding intensity (ln)” value falls from 10.6 to 9.55.

Going from “AAATAATTCATATGTTGTACAGTAATTAAATTTTCT [XGTACX_site6343]” to “TTTTATAATTTATCTAAAAAAAAATAAAATAAAATG [TGCATGCA_negctrl_site429]”, the “gcPBM binding intensity (ln)” value falls from 9.61 to 8.94.

Compared with “ATAAAATAAAATAAAAGTACATAAATATATATATAT [XGTACX_site6110]”, “TTTTTTTTTCTTTGCACACAGATAACTTGAAATTTG [CACACA_site2185]” is higher in “gcPBM binding intensity (ln)” value: 9.82 for the first, 9.9 for the second.

Compared with “ACATATATATATATTACACACACACTAATAAAATAA [CACACA_site7920]”, “TTTCAAGAATTATATAAACACACATACATACACCCA [CACACA_site8592]” is lower in “gcPBM binding intensity (ln)” value: 10.3 for the first, 10.1 for the second.

Compared with “AATAATATATATTACTGTACTAATATAAGGGACATC [XGTACX_site3744]”, “TTATTTTCTACAAATTGTACATATTTTTTACTACTC [XGTACX_site1394]” is higher in “gcPBM binding intensity (ln)” value: 9.83 for the first, 10 for the second.

Compared with “ATTTATGAAAAAAATACATGCATGTCCATATAAATT [TGCATGCA_site505]”, “TTGTCAAAAATTACACACATAAATGAATAAATAAAT [XGTACX_negctrl_site541]” is higher in “gcPBM binding intensity (ln)” value: 9.8 for the first, 9.84 for the second.

Going from “TCTTTCTATTAAACATGTACTTGTCTAAAGACATAA [XGTACX_site8564]” to “CGAATAAATATATGTAGTACATGTTGTAGATAATTT [XGTACX_site1218]”, the “gcPBM binding intensity (ln)” value rises from 9.28 to 9.79.

Going from “TATATATATTTAAATTGTACATATATTATTCATATG [XGTACX_site911]” to “AAAAAAAAAAAAAAAAGTACAAATTTAAAAATGTGT [XGTACX_site112]”, the “gcPBM binding intensity (ln)” value falls from 9.59 to 9.44.

Going from “TTGGTTTCTTGTTTTTGTACCCATAATTTGTAATAT [XGTACX_site1248]” to “AATAATAAAATAAAAGTGCATTAATTATAATTCTTT [GTGCAC_site9491]”, the “gcPBM binding intensity (ln)” value falls from 9.78 to 9.65.

Compared with “AATTATAATAATAATAGTACATAAGTATATAAATAA [XGTACX_site2400]”, “TCTTTCTAAATCTTACAAATTACTAAAATATTTATA [CACACA_negctrl_site87]” is lower in “gcPBM binding intensity (ln)” value: 9.89 for the first, 9.41 for the second.

Going from “GAGGAAAAAAAAAAAAGTACATTATATAAGAAAATT [XGTACX_site2610]” to “TTAAATATTTATATTTGTACACAATCAATCATACAC [XGTACX_site5793]”, the “gcPBM binding intensity (ln)” value rises from 9.45 to 9.64.

Compared with “TTGTTATGCATTGGTTGTACATAAGTATAAGTAATT [XGTACX_site5401]”, “ATATATATATTTTATTGTACAAAAAAAAAAAAAAAA [XGTACX_site6803]” is lower in “gcPBM binding intensity (ln)” value: 9.65 for the first, 9.13 for the second.

First: ATAGGATTCTCAAAGTGTACTTGTCTACTGTAGTTT [XGTACX_site4202]
Second: TTTGTTTGTAAAATGTTGCACTTTCTTTTGCTGATA
The “gcPBM binding intensity (ln)” value of the first is lower: 9.58 for the first, 9.66 for the second.

Going from “AAAAAAAAAATATGTACACACATATAAAATACATAA [CACACA_site6869]” to “CCATTATACACAATATGTACATATATATAATCATTT [XGTACX_site7942]”, the “gcPBM binding intensity (ln)” value falls from 9.97 to 9.69.

Compared with “TGTTTTGTTATTTTTATTTATATAAATAAAGCTATA [GTGCAC_negctrl_site88]”, “CATAAATACAGTAACACACACAAAAAAATATGAATA [CACACA_site6066]” is higher in “gcPBM binding intensity (ln)” value: 9.59 for the first, 10.9 for the second.

Compared with “ATATATATATTATATGCACACTAATAAGACTATTTA [CACACA_site5880]”, “GTAGTCCAAAAAAAGCGTACACAGAAAAAAAAAAAA [XGTACX_site4273]” is lower in “gcPBM binding intensity (ln)” value: 9.67 for the first, 9.61 for the second.
